Some of the results follow.

For the assay, the system named is PfHDP1 homeodomain (GST-tagged). In words: gcPBM binding intensity (ln(normalized median fluorescence intensity)); higher = stronger DNA binding. The gist of the method:
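The highest Masliner-normalised natural-log median intensity across replicate spots of either probe orientation is reported as binding intensity. GST-tagged P. falciparum DNA-binding domains expressed in E. coli were applied for 1 h to an Agilent 4 × 180k array of primer-extended double-stranded 36-bp intergenic genomic probes plus negative controls, and bound protein was detected with Alexa488 anti-GST antibody and scanned at 488 nm.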
In the case of “TTACACAAACAAATTATGGACACATAAGTAAAAGGA [CACACA_negctrl_site1622]”, the “gcPBM binding intensity (ln)” value was 6.97.

“TGAAAAAAAAAAAAAAAAAAAAGAAAAAAAAAAAAA [CACACA_negctrl_site709]”: the “gcPBM binding intensity (ln)” value was 5.61. Regarding “TATAATTCATATGAAACACACATTTATTTTAATTAC [CACACA_site3686]”, the “gcPBM binding intensity (ln)” value came to 6.47. As for “GAAAAAAGAAAAAAAAGTACATATATTTAATAAGAC [XGTACX_site6912]”, the “gcPBM binding intensity (ln)” value is 6.71. The figure for “TTATCCATAAAAAAGTGTACGCACTAAAATTGAAAA [XGTACX_site5460]” is 6.68. With “TTTATTATCGTTCTCATACACACAAAATATACATAC [CACACA_site2642]” the figure was 6.89; with “TAGGCGTTTAATAAAAGTACCCACACATATATTATT [XGTACX_site1932]”, 6.46.

In the case of “CATAAATTAATAGTCACACACGTATTTTTTATATAT [CACACA_site2526]”, the “gcPBM binding intensity (ln)” value came out at 6.16. The figure for “AATTCAAATATAAATACACACACATAGCTACAAAAT [CACACA_site9386]” is 7.07; for “ATTTAACAACTTCAAACACACAATATATATATATAT [CACACA_site2093]” it is 9.12; for “AAATATATATGTGGGGGTACTAATAAAAAAACCCCT [XGTACX_site2657]” it is 6.65. Take “AATAAATAAGCACATACACACATACATACATACATA [CACACA_site6075]”: the “gcPBM binding intensity (ln)” value turned out to be 6.86. Turning to “TTGTATTTTTAAATGACACACACATATATATATATA [CACACA_site8481]”, the “gcPBM binding intensity (ln)” value came to 9.18. Consider “AAGTTATAAAAATAAAGTACAAAGTAGCTATTTTTT [XGTACX_site3144]”, for which the “gcPBM binding intensity (ln)” value worked out at 5.93.

On to “ATTAAAACCAATTAAAAAAAATTTATAATGGAAGCA [TGCATGCA_negctrl_site273]”, for which the “gcPBM binding intensity (ln)” value amounted to 6.16. The figure for “GAGATAAAATAAAACACACACATATATATATATAAT [CACACA_site5246]” is 6.81. As to “AATGACTAAATTTAAACACACAAGGGGAGTTTACTT [CACACA_site918]”, the “gcPBM binding intensity (ln)” value amounted to 6.04. “TATTATTGTTGTTCATGTACACACTATAATAAAAGC [XGTACX_site8957]”: the “gcPBM binding intensity (ln)” value was 6.56. With “TATATATCATTTAAAACACACAAAAAAAAAAGTTAT [CACACA_site6191]” the figure was 6.9. For the sequence “ATAAATATAAAAAAATGTACATATAGTAATACATAC [XGTACX_site508]”, the “gcPBM binding intensity (ln)” value is 6.36. The figure for “GAAATAAAAAGAAATGCATGTAATTTTTTTTTTTTT [TGCATGCA_site928]” is 5.94. With “ATAAGTATAAGAATCAGTACACAGTTTCTACATACT [XGTACX_site5834]” the figure was 6.01; with “TTGCATTACGAACATACACACAGAATAACTGAAAAC [CACACA_site3025]”, 7.06; with “TTCGATGAATATACAAGTACATATCCTTACGAACTG [XGTACX_site1650]”, 5.89. For “TTTTTATTAAGACATGCATGGAAACGCACTATTTTA [TGCATGCA_site999]”, the “gcPBM binding intensity (ln)” value is 8.85. With “AATAAATAAATATATACACACATATATGTCTACATA [CACACA_site3158]”, the “gcPBM binding intensity (ln)” value came to 6.63. In the case of “TTTATATCATTTCTTAAAAAAAAGGAGGTAATAGAC [TGCATGCA_negctrl_site555]”, the “gcPBM binding intensity (ln)” value came to 7.81. Consider “ATACGAAGTACGTACACACACTTATATGTTACTAAA [CACACA_site7812]”, for which the “gcPBM binding intensity (ln)” value came out at 6.52.

As to “TATATATGCATTAAATGATGTTCCTGTTTTTTAAAA [CACACA_negctrl_site1378]”, the “gcPBM binding intensity (ln)” value was 7.08.

With “CACAAAATAAATTAAACACACAACATCATAGATGTA [CACACA_site4619]”, the “gcPBM binding intensity (ln)” value was determined as 6.17.

Regarding “AATTTTTATTTGTACACACATACATATATATTATAT [CACACA_site993]”, the “gcPBM binding intensity (ln)” value amounted to 6.88.

For “ATATAATCAGCTTCTCTTTTATGCTAAAAAAAAAAA [CACACA_negctrl_site1310]”, the “gcPBM binding intensity (ln)” value amounted to 6.07. With “ATAAATAATATAAATACACACTAAAAAAAATATATA [CACACA_site4456]” the figure was 6.84; with “TGTCATCATCTTAAATGTACAAAAAGGAAATATAAA [XGTACX_site1529]”, 6.79. The figure for “TTTTTATTTACACTTTTTATTTATATATTATGTACG [CACACA_negctrl_site158]” is 6.79. The figure for “TTTATATATTTCATAATACACACGAAAAAAAAAAAA [CACACA_site2970]” is 6.56; for “TTAGTTTATTGGTACTGTACTTTTTTTTTCTCCATT [XGTACX_site8618]” it is 6.57; for “TTATTTAAAATTTTTATGCGTATATATATAGGAACA [CACACA_negctrl_site388]” it is 6.87. Consider “ATTTTTGAACGGTACAGTACAGAATTTAATTAACCC [XGTACX_site47]”, for which the “gcPBM binding intensity (ln)” value amounted to 7.06. The figure for “TATCATATATGAAGGTGTACGATTTATTATATAAAT [XGTACX_site7010]” is 6.52.

Consider “TTTATTTACTATTAAAGTACTAAATCATATAATTAT [XGTACX_site2580]”, for which the “gcPBM binding intensity (ln)” value was 6.06. The figure for “TGTTTATACATCAGGTGTACGCAAAATAATTGTATG [XGTACX_site206]” is 6.69; for “TTAACACATGCTTGGTCACACACGTATGCATATTTA [CACACA_site2127]” it is 6.77. “TATACATATACATATACACACACACCCATAAATAAA [CACACA_site8372]”: the “gcPBM binding intensity (ln)” value amounted to 7.36. “TATTTGTAATATAACACACACAAAAAAAGACTCGGA [CACACA_site1681]”: the “gcPBM binding intensity (ln)” value is 6.81. The figure for “TTTGTCAAATAATATTGTACTAAAAAATTTTGCCTT [XGTACX_site7485]” is 6.26; for “ATACACACAGCCTAAACATGCATATAGAAAAAAGAA [TGCATGCA_site1028]” it is 7.3. For “AAGTTACAGAATATCACACATAAATTATCTGTATAT [CACACA_site5116]”, the “gcPBM binding intensity (ln)” value was 6.23. “GTTAAGCAATATATATGTACTTATGGAATAGAAAAA [XGTACX_site3693]”: the “gcPBM binding intensity (ln)” value is 6.75.

In the case of “TCAATTAATTATTTTTGTACACAAGAATTACTGAAT [XGTACX_site6401]”, the “gcPBM binding intensity (ln)” value was 6.28.

As for “GTGTGATATAATTTTTTTAGAGCTTTATAATATTAT [CACACA_negctrl_site233]”, the “gcPBM binding intensity (ln)” value came to 6.75. With “CAACCATTTGTAGGTAAACACACATTATTATTAATA [CACACA_site8842]”, the “gcPBM binding intensity (ln)” value was 6.31. The figure for “TATGTTGATGATATTACACACCCAATGAGAAAAGGA [CACACA_site7060]” is 7.14; for “ACTACGAATGGTAGAGTGCAGTCTGGAGAAAAGTAC [GTGCAC_site9681]” it is 7.64. The figure for “CTTTTTTTTTTTTTTGCGCACTGTTTAAAGGGAAAT [GTGCAC_site9815]” is 7.48; for “ATTATCTATCGTTTTTGTACTTACACCTTAATACAA [XGTACX_site7337]” it is 7.54; for “ATATATATATAATAAAGTACAAATTCTAAATGATAT [XGTACX_site570]” it is 8.58. In the case of “TATCTTATGTCTGAAAGTACAAATTTTTTTCTACTT [XGTACX_site2208]”, the “gcPBM binding intensity (ln)” value was 5.95.

“TAATTTAGATATATAAAGAATTAAAGTTAACATTCT [CACACA_negctrl_site726]”: the “gcPBM binding intensity (ln)” value was determined as 5.82.

Turning to “TTAAGAAAAAAAAAAAGTACACACATATAATATATA [XGTACX_site6268]”, the “gcPBM binding intensity (ln)” value came to 6.59. With “TTTTTCAGATCCTATATAGTATCATATAAATTCCAT [CACACA_negctrl_site56]”, the “gcPBM binding intensity (ln)” value was found to be 6.38. With “AAGATCGCATGAAATGAACACACATAAAAAAAATAT [CACACA_site9353]”, the “gcPBM binding intensity (ln)” value was determined as 6.83. The figure for CGTTGGTATTAAAAGGTGCAATGAAATAATATATTA is 8.16; for “TAAAATTTATAAACTACACACATATATATAGTAATA [CACACA_site3728]” it is 6.33. Consider “AATGTAACAACTTTTTGTACTTAAGAAATAATAAAT [XGTACX_site3310]”, for which the “gcPBM binding intensity (ln)” value turned out to be 6.31. Consider “TAAAAAATTATATTCACACACATACCCATATATATA [CACACA_site4458]”, for which the “gcPBM binding intensity (ln)” value worked out at 6.83.

As to “AAATGAGATATAAAATGTACATATTGTAAGTAAACA [XGTACX_site1237]”, the “gcPBM binding intensity (ln)” value came to 6.79. Regarding “GGGATATATTATTATACACACATATATAAAAGCTTT [CACACA_site2445]”, the “gcPBM binding intensity (ln)” value worked out at 7. Regarding “TTAATTATATCAGGACGTACTAATATAAATATATAT [XGTACX_site8909]”, the “gcPBM binding intensity (ln)” value was determined as 6.45. Regarding “GTGCAAAATATTTTTACACACAAATTTTTACAACAG [CACACA_site3357]”, the “gcPBM binding intensity (ln)” value was determined as 8.07. For “AAAAATAAATAAGACACACACAAAAAAAAAAAAAAA [CACACA_site1432]”, the “gcPBM binding intensity (ln)” value worked out at 6.27. With “AAATATTTTTAGAGTGCATGTAATAAAAATATAATG [TGCATGCA_site19]”, the “gcPBM binding intensity (ln)” value was 7.57.

On to “ATACAACTAATAAGTAGTACAATATACATATATTAT [XGTACX_site7086]”, for which the “gcPBM binding intensity (ln)” value came to 6.52. With “AAATAATATATTCTATATAATAAATTATAAATATAA [GTGCAC_negctrl_site558]” the figure was 5.77; with “ATATATATATATATATATATATATATATATTATATA [XGTACX_negctrl_site48]”, 9.21; with “ATATGACTGTTCATTTGTACGTATAATTATATACGT [XGTACX_site3372]”, 6.62. With “AAAAAAAATGAAAGGTGTACACATACAAACATAGAA [XGTACX_site3517]”, the “gcPBM binding intensity (ln)” value was 7.69.

Regarding “TTTTTTTTTTTTTTTTATTTATATATATATATATAT [CACACA_negctrl_site582]”, the “gcPBM binding intensity (ln)” value worked out at 8.87.

On to “GTTTTATAAAAAGGCGCACACATATACATAAATATA [CACACA_site1864]”, for which the “gcPBM binding intensity (ln)” value amounted to 7.08. With “AAAAAGAAAATATATACACACCAAAAAAAAAAAAAA [CACACA_site5698]” the figure was 6.17; with “GATAAAGTACTTTATACACACAAATATTTATATATA [CACACA_site3974]”, 6.7; with “TAAATACAAAAATGCACACGAAAAGTAATATATATA [CACACA_site6151]”, 9.62. The figure for “TCAAATTACTAAAATACACACATATTATAGATATAT [CACACA_site7233]” is 6.47; for “TGTATATATAATAAAACACACATTTTTAATGTGCTC [CACACA_site1437]” it is 6.3. With “GAACTTTACAACCCAACACACAAAAAAGAAAAGAAA [CACACA_site1717]” the figure was 6.33; with “ATATGTTCATTTAAAAGTACTTAATATAACATTTTT [XGTACX_site3332]”, 6.45; with “AATAGGAAAAGAAAAGCACACACATAAATAAATATA [CACACA_site8062]”, 6.7.

With “ATTGGTGTATGTTTATGTACTTATCACAATTATGAA [XGTACX_site7055]”, the “gcPBM binding intensity (ln)” value was 6.72.

The record behind these values is the supplement of paper PMC11417369.
